# Laboratory results published in the supplement of paper PMC11417369.
# This is one part of the list.
# Tested on: PfAP2-HC AP2 domain (GST-tagged)
# Experiment: gcPBM binding intensity (ln(normalized median fluorescence intensity)); higher = stronger DNA binding
# In short: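 The binding buffer was 1× PBS containing 1% milk, 0.2 mg/ml BSA, 0.5% salmon testes DNA and 0.03% Triton X-100. In it, GST-tagged P. falciparum DNA-binding domains expressed in E. coli were applied for 1 h to an Agilent 4 × 180k array of primer-extended double-stranded 36-bp intergenic genomic probes plus negative controls. Binding intensity, read with Alexa488 anti-GST antibody and a 488 nm scan, is the highest Masliner-normalised natural-log median intensity across replicate spots of either probe orientation.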
row,Sequence,gcPBM binding intensity (ln)
1,TTGTAATTATTAAACACACACAAAATATCTAGAATA [CACACA_site7231],10
2,ATTTTTTTTTGTGTATATAAATAAATAAATATATAT [GTGCAC_negctrl_site603],9.42
3,ATTTAGATTAACACTTGTACATAATACATACAAATA [XGTACX_site4147],9.5
4,TTTTTTATTTTTTTATTGTTTTATTGTTTCATTGTT [XGTACX_negctrl_site128],9.7
5,CCGTAGTTTTAAAATAGTACTTTTATGGTTAATAAA [XGTACX_site3162],9.38
6,TTACTACTATATTATACACACATATATTTATTTATA [CACACA_site7274],9.91
7,TATAAAAAGCAAAACAAAAAAACAAATTGAAAAATT [TGCATGCA_negctrl_site158],9.62
8,TATAAATAATAAAGATGTACTTTTTATGATTCCTAC [XGTACX_site7003],9.66
9,CAATTTATTTTTATTACACACTATCCAAATAATTTC [CACACA_site2956],9.66
10,CCATAAAATCATAAGCGTACTTAATATATTTTACTT [XGTACX_site559],9.72
11,TTAAACAATTTAGACATACACACAAAAATAATATTA [CACACA_site385],9.87
12,AACATACGACAATACGCACACATATATGTACATATT [CACACA_site1917],10
13,TATATAATAATTTAGAGTACTGATAAAATATTCCAT [XGTACX_site6200],9.31
14,AGCATACATATTTTTTGTACATATATATATATATAT [XGTACX_site8536],9.88
15,TAATTTTTCCTTTTTGCACACATTAACGTCGACGAA [CACACA_site4025],9.79
16,CCCTGCCTCTCTTTGGTGCGTTGTAACCCTCGAGGA,9.49
17,AAAAAAAAAAAAAGCACACACACATATGTGTATATA [CACACA_site8225],10.3
18,TGTCTGTGCGGGTGTACACATTTCATATTACCCAAT [CACACA_site5593],9.8
19,TAAATTGTATATGAGACTATACTATAAAAGTATGAA [XGTACX_negctrl_site22],9.59
20,AACCTTACACAAGGGGTGCAATATTATTTCGATAAA [GTGCAC_site9600],9.47
21,TGCTCCTATTATATAGTGCATTTATTTTAATAAACG,9.38
22,TAATTTATAAAAAATTGTACATTAAACATATATATA [XGTACX_site5164],9.45
23,TCTTTTCGTTCATGCTGTACTTAATTGCTCTAATTT [XGTACX_site4816],9.82

row,Sequence,gcPBM binding intensity (ln)
1,ATTTAAATAATATGTACACACATTTAAAAAATTATA [CACACA_site2816],9.65
2,TAAGAAAAAGGCACACGTACATAATTCAAAATAAAT [XGTACX_site982],10.2
3,CCAATGAGGATATATACACACATACATTAAAAAAAT [CACACA_site5090],9.86
4,ATATATATGTATGTATGTACTTATTTATTTATTTAT [XGTACX_site7740],9.77
5,TTTTTTTTCACACATTGTACTTTTTTATAAAATATA [XGTACX_site4351],9.74
6,AATATATAGGTATTTACACACAATGTGAGATCTATA [CACACA_site3407],9.89
7,ATTTATGAAAAGTAAAGTACACACAGGAAAAAAAAA [XGTACX_site3564],9.87
8,GTCAACTTGTGATAAGTGCATATATATAATAAAATG,9.62
9,CGAAATAAATCTTATGCACACAAATAATTAATTAAA [CACACA_site8491],9.72
10,AAAAAAATATAATATTTGAATAAATATAATAATATG [XGTACX_negctrl_site477],9.58
11,AATTATCAAAGTCTATACATACATACATACATACAT [GTGCAC_negctrl_site243],9.82
12,TAATTATAATAAAAAGGTACAGAAAAGTTATACTCA [XGTACX_site6111],9.61
13,GTTATAACTCAAATATGTACATATTATAAAACATAT [XGTACX_site6693],9.66
14,TATAAAAATAAGCACACACACAAATATATATTTATT [CACACA_site922],10.3
15,TTATAGAACTATATTGCACACATAATATATATATAT [CACACA_site9042],9.85
16,AAAAAAAAAAAAAAAGGTACACAAATACGTCCTGCA [XGTACX_site3354],9.64
17,TATACATATTTACAAGTGCATAATATTTTACAAAAA,9.53
18,ATAAAATAAATAAATATAAATATATATATATATATA [TGCATGCA_negctrl_site358],9.64
19,CACTCTTAAAATAAGGTGCACTATATAACGTGATTA [GTGCAC_site9422],9.51
20,TCTTCTAATTTACCTACACACAGGAGATATATAAAT [CACACA_site6276],9.7
21,TATATATATATATATTGTACAAAATATTTATATGTT [XGTACX_site436],9.78
22,TAATTAATTTATTAGTTGCACTGTACCATTAGAGTA,9.48
23,GTTCATAAATTAAACACACACACACCCCTGGATACC [CACACA_site3331],10.4

row,Sequence,gcPBM binding intensity (ln)
1,ATCAACATTATGGTTAGTACTTAGTGAATTGTTAAT [XGTACX_site4926],9.61
2,GTGTAATATATTTTTCGTACATATTATATATATATA [XGTACX_site1675],9.74
3,TTATACACCTTTCATTGTACATATAATTTATATTCT [XGTACX_site8685],9.85
4,AATATTCAATATATATATATATATAATATTAATATA [GTGCAC_negctrl_site571],9.48
5,ATATTTTATTTAATTACACACAATATTGCAATTTGT [CACACA_site669],10.2
6,AAGGATTTTTTATACACACACTAACTAATGTATATA [CACACA_site7163],9.97
7,TAATACCATAACAAGTGTACATAAATAATTATTGTA [XGTACX_site4949],9.69
8,TATATTACTTTGTGTTGTACGGAAATATATATATAT [XGTACX_site4309],9.63
9,AAAACTATTAAATGTAGTACATAATTATTGAAATAA [XGTACX_site8716],9.66
10,AAATACATATCATGTAGTACATATATATGTAGGTTA [XGTACX_site5392],9.92
11,ATAATTATTCTTATGGTGCACTGAATATACATGTTG [GTGCAC_site9760],9.81
12,ATAGCACATTTTTAAGCACACGTTTATTATATATAT [CACACA_site6084],9.82
13,CAAAAATATATTTTTTGTACACAAAAAAAAAATAAA [XGTACX_site5229],9.64
14,TTTTTATTGAGATACTTATATAATTTTATGAATAAA [XGTACX_negctrl_site311],9.16
15,TTTTTTTGCTCTTTTTATATATATATATATATATAT [GTGCAC_negctrl_site70],9.96
16,TTTGAAAAGTTGAAATGTACACATTTACACATATTT [XGTACX_site1641],9.64
17,TGTTGTATTTTTACAACACACATTTAATCCATTTAA [CACACA_site1507],9.63
18,CTTATATATTGGGATAGTACTTTTAACTAAATAGAA [XGTACX_site5900],9.27
19,ACTTTACGAATTAAGAGTACTTATTTAAGGAACACT [XGTACX_site7919],9.51
20,ATATAAAGTATGTTAGTGCACTTTTTTTTTTTTTTT [GTGCAC_site9419],9.62
21,GTAATACACATATAATGTACTCATAAATATATTTAT [XGTACX_site4041],9.77
22,TCATAGGAGAACTTTTGTACAGATTTTTCTTTTTTT [XGTACX_site2853],9.57
23,ATGTTAACTAAATGTACACACCTATGTTGATGTAAC [CACACA_site5073],9.8

row,Sequence,gcPBM binding intensity (ln)
1,TATATATATAAAATATGTACATAAAATTATTTATTT [XGTACX_site7666],9.64
2,AAAGTTTAAATGAGAAGTACAAATTTTTGTTTTTAT [XGTACX_site1844],9.52
3,GTGGTTGTAATGGTGGTGCATATTGTATATTATGTT,10.1
4,AATATAAGTGTACATACACACTTTACAATATCATAT [CACACA_site5634],9.76
5,AATTTTATATATATATGTACATATTTATATGCTTAT [XGTACX_site8180],9.8
6,TTTCTATATCTTTCAACACACAAATTTTTTTTTCCA [CACACA_site108],9.69
7,ACATACATACCCCCACGTACGTACCGAAACACCACC [XGTACX_site1982],9.84
8,CAAAGAACTTATAGGGTGCTTTACTTATAAGTAAAT [GTGCAC_site9579],9.5
9,TTACTACTATATTATACACACATATATATATATATA [CACACA_site2621],9.96
10,TTTATTTATGTAGATACACACCCATGTTATATGGAG [CACACA_site9144],9.6
11,TTCTAATATTTTTGCACACTAAACAATAAATTTCCT [CACACA_site3944],9.78
12,TTAAAAGAAAAAATATGTACATATATTATATATATC [XGTACX_site7009],9.67
13,TGTGAATAAATAAGCACACATAAACACATATATAAA [CACACA_site6114],10.2
14,GTTTATTCTTTTTATACACACCTTATTTGATTAACA [CACACA_site4567],9.93
15,TATACATAGAAACACACACACATATATATATATATA [CACACA_site2248],10.8
16,AATAATATATATATATATATATATAGATATGTATAT [GTGCAC_negctrl_site653],9.75
17,AGCAAAAATTAAATAAATAAATATATATATATATAT [TGCATGCA_negctrl_site449],9.51
18,GCAACATTCTAAGACACACACACACCCATATATATA [CACACA_site1053],10.5
19,AATGATGTCATAGGGGGTACACATAAATGTGAATGT [XGTACX_site6745],9.63
20,ATATTAATAATATATACACACATAAGTATTGTATAT [CACACA_site4095],9.79
21,AGTTTTATATTTCTGAGTACTTATGAATCTAGCTCG [XGTACX_site4330],9.35
